Literature values, collected in patent US8980610B2 (priority 2009, dated 2015).
Read-outs that look alike come from different tables or passages of the source.

Legend:
Conditions in all cases: cited from earlier work
[1] = test system: T-even strains of bacteriophage (T2L)
[2] = test system: T-odd strains of bacteriophage
[3] = test system: herpes simplex virus type-1 (HSV-1)

For N=C(N)NCCC[C@H](N)C(=O)O [Arginine, arginine], the “inactivation of T2L (in words)” value [1] is given as “increasingly ineffective”, the “inactivation of T-even bacteriophage (in words)” value [1] is given as “irreversibly inactivated” and the “inactivation of T-odd bacteriophage (in words)” value [2] is given as “did not inactivate”. For the same compound, the “inactivation of HSV-1 (in words)” value ([3]; low (acidic) pH, samples on ice) was “can inactivate” and the “inactivation of HSV-1 (in words)” value ([3]; pH 5.0-pH 7.0) was “ineffective”.
